# Measured values: the supplement of paper PMC4466236
# In all, about 33,000 sequences were measured (“E-score (dimensionless, -0.5 to 0.5)”: median about -0.058, highest 2% from about 0.35 on). Some of the results follow.
# Tested on: MvaT
# Assay: PBM 8-mer E-score (mean of HK and ME arrays) (E-score (dimensionless, -0.5 to 0.5)); higher = stronger relative binding preference; most listed sequences are background and not binding sites
# In short: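 Full-length P. aeruginosa MvaT, with glutathione S-transferase fused to its N-terminus (cloned into pTH6838 by isothermal assembly), was tested by protein binding microarray using a previously described protocol. Two universal double-stranded 60-mer arrays (ME and HK) were used, each with a constant 25-mer primer region and a variable 35-mer region covering all 8-mers. The rank-based 8-mer E-score (-0.5 to 0.5) is the mean of the two arrays, parsed with a custom Python script.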
row,Sequence,PBM 8-mer E-score
1,AAACAACG,0.157
2,AGGCCTTG,-0.183
3,GTGGATAA,0.103
4,GAGGTCGA,-0.159
5,CGTTCTAA,0.059
6,AAGATGGG,0.125
7,CAACCACC,-0.0994
8,GGCTCCCA,-0.209
9,ATTGCCGC,-0.0616
10,ATGGAGGG,-0.32
11,GCCGTCGA,-0.229
12,TCACCCAA,0.0991
13,ACCTGAAC,-0.147
14,GCTGATCC,-0.223
15,AGTCCATG,-0.157
16,CGGTACAA,0.0563
17,AAAATATC,0.314
18,AGAATAAC,0.232
19,AATATCGC,0.227
20,CGCGATTA,0.0811
21,CCCAAACA,0.16
22,AGTGACCC,-0.144
23,ATTGATCA,0.146
24,GATTTCGC,-0.1
25,GAGTTTCA,-0.0971

row,Sequence,PBM 8-mer E-score
1,CCACGCGC,-0.112
2,GCGTGTAC,-0.107
3,CCGTTGTA,-0.0184
4,CAAGTTAG,0.194
5,CTCTAAAA,0.0251
6,CACGCAGC,-0.256
7,ATAGATCG,0.0256
8,AATACTTG,0.191
9,AGTACGTC,0.0613
10,AAGATTTA,0.295
11,CGCCTAAA,-6.02e-05
12,AGGTCAGC,-0.158
13,CCCATGCG,-0.209
14,TATATCAA,0.352
15,GCAGCTAC,-0.276
16,AACAACCT,-0.0621
17,AACACGTC,-0.139
18,AGGGTATC,-0.165
19,ACACTCTC,-0.133
20,AGCGAAAC,-0.0107
21,CGCCAACC,-0.0585
22,GGTAGAAA,0.119
23,GCATCTCC,-0.238
24,AGATATAT,0.46
25,CCGCCACA,-0.0657

row,Sequence,PBM 8-mer E-score
1,CTTTTTCC,-0.118
2,CGATCCCG,-0.18
3,TATGGTGA,0.0346
4,GAGGGGCC,-0.335
5,CTCCGCCA,-0.247
6,ACTTGCCC,-0.0722
7,CCTTACAA,0.0169
8,AGTAGTAG,0.0232
9,AATATACT,0.421
10,CAAACTAA,0.376
11,AAGGATTC,-0.0399
12,GGGACCAA,-0.171
13,GCTCAGCC,-0.291
14,GAGGACAA,-0.0507
15,CGGAGGTC,-0.226
16,TACAACGA,0.137
17,CAATTTGA,0.261
18,ATAGCCCA,-0.0269
19,CCCCGCGA,-0.0625
20,CCCTGACA,-0.102
21,CATAGTTA,0.178
22,ACTTCGCT,0.0588
23,ATAAGCTC,0.117
24,ACACGCTG,-0.0855
25,CGAAACCC,-0.303

row,Sequence,PBM 8-mer E-score
1,CCAGCTGC,-0.221
2,GATTTGAC,-0.0774
3,AATCTATG,0.018
4,AGCGTGGC,-0.203
5,CTGTCGGC,-0.23
6,CCGGTCTC,-0.177
7,AGCATGCG,-0.24
8,ACTAGAGA,-0.0368
9,CTATGTGC,-0.00324
10,CGGGCGAC,-0.164
11,AGTCGTGA,-0.172
12,GTACCGGA,-0.176
13,GGGGGTTA,-0.187
14,CCGGGATA,-0.0766
15,CGCCGTCC,-0.22
16,AGTACTCA,0.089
17,ACAATCCC,0.129
18,AAGTTGGT,0.23
19,GCGCGCAA,0.159
20,CTACTATA,0.292
21,ACAAGGAA,-0.0659
22,CAAGTGTA,0.0572
23,CTAGCACC,-0.205
24,ACCTTCCC,-0.163
25,CGCTGACC,-0.0604

row,Sequence,PBM 8-mer E-score
1,AGTTAAGA,0.195
2,AGCACTTG,-0.104
3,GACTGGTA,-0.0435
4,AAACGCAG,-0.0873
5,AAGTTCAG,0.247
6,CGTATTGC,0.0393
7,ACGTTGGC,-0.194
8,GACCATAC,-0.0941
9,GGCGACCC,-0.323
10,GGGGTTAC,-0.246
11,CTTGGACC,-0.179
12,CGGGAATA,0.0782
13,AGCAGAAC,-0.0738
14,GCGCGTAC,-0.156
15,CAGCCCGG,-0.218
16,AGTCATCC,-0.183
17,CATAAGGA,-0.0113
18,TCAAGAGA,-0.145
19,ATCGCTCC,-0.14
20,CTCCGACA,-0.0612
21,ACTCTTGG,-0.0512
22,AGGCTCTA,-0.116
23,CCCATCGG,-0.267
24,AACTGATC,-0.00863
25,CCGCAACG,-0.129

row,Sequence,PBM 8-mer E-score
1,ATTATCAA,0.321
2,TCATATCA,0.138
3,CCATCCAC,-0.18
4,GTTGGATA,0.195
5,ATAGGGTG,0.068
6,ACTAATCA,0.173
7,CAATTTCG,0.0861
8,ACACCGAG,-0.157
9,CCTGGAAG,-0.186
10,ACTGGCGA,-0.0124
11,ACGACATC,-0.187
12,CACTACCC,-0.265
13,AATGGAAG,-0.13
14,CTGCCGAA,-0.071
15,AAAGAGAG,-0.103
16,CCCGGAAA,-0.196
17,ACTAGCGC,-0.278
18,CAGGATCG,-0.115
19,GACCACCC,-0.296
20,TACACGAA,0.123
21,ATCCGTTG,0.0118
22,ACCTAGTC,-0.0549
23,AGGGCTAT,-0.13
24,TCACATCA,-0.0704
25,CCTCATGA,-0.181

row,Sequence,PBM 8-mer E-score
1,ATGGATGA,0.0515
2,CAAGAGGG,-0.174
3,AACGTATG,-0.00901
4,ACCACCCG,-0.269
5,CGGGAGAA,-0.0693
6,AGGAGTTA,0.108
7,TACGGGAA,-0.000902
8,ATTTGTCG,0.142
9,ACTATGAC,0.159
10,AGGGATGC,-0.182
11,AAATTACG,0.256
12,ACGAACTG,0.115
13,AAGCCTTG,-0.239
14,ACGTAAGT,0.121
15,GACTATGC,-0.0746
16,CCTATCCA,-0.122
17,CCGGAGCC,-0.284
18,ATACGATA,0.148
19,GCCTGGCC,-0.189
20,ACCTTGAA,-0.101
21,CCCATCCC,-0.159
22,GCGTCGAA,-0.0372
